Substitutions are numbered along the chain they refer to. Numbers in names are those of the source. Laboratory Escherichia coli strains with one amino-acid change in an essential protein, pooled on minimal glucose agar with carbenicillin or gentamicin at twice the control MIC (plus kanamycin and chloramphenicol for the plasmids), 48 h. Fold change of barcode share against drug-free plates; higher = less susceptible. Active = above 20 in both replicates (the paper's putatively resistant). '<' = one read or none on drug, '>' = one read or none on a drug-free plate. Shares are relative, so most strains fall below 1 when a few take over. Listed are strains with at least 15 reads on both drug-free plates, and hits; most hits rest on fewer reference reads. Replicate rank correlation about 0.5. Edits are read from barcodes.
B1: suhB V82A (protein)
chain: MHPMLNIAVRAARKAGNLIAKNYETPDAVEASQKGSNDFVTNVDKAAEAVIIDTIRKSYPQHTIITEESGELEGTDQDVQWAIDPLDGTTNFIKRLPHFAVSIAVRIKGRTEVAVVYDPMRNELFTATRGQGAQLNGYRLRGSTARDLDGTILATGFPFKAKQYATTYINIVGKLFNECADFRRTGSAALDLAYVAAGRVDGFFEIGLRPWDFAAGELLVREAGGIVSDFTGGHNYMLTGNIVAGNPRVVKAMLANMRDELSDALKR
B2: trmD V152W (protein)
chain: MWIGIISLFPEMFRAITDYGVTGRAVKNGLLSIQSWSPRDFTHDRHRTVDDRPYGGGPGMLMMVQPLRDAIHAAKAAAGEGAKVIYLSPQGRKLDQAGVSELATNQKLILVCGRYEGIDERVIQTEIDEEWSIGDYVLSGGELPAMTLIDSWSRFIPGVLGHEASATEDSFAEGLLDCPHYTRPEVLEGMEVPPVLLSGNHAEIRRWRLKQSLGRTWLRRPELLENLALTEEQARLLAEFKTEHAQQQHKHDGMA
B3: trmD L213W (protein)
chain: B2 chain with W152V, L213W
B4: trmD I71A (protein)
chain: B2 chain with I71A, W152V
B5: tmk V54A (protein)
chain: MRSKYIVIEGLEGAGKTTARNVVVETLEQLGIRDMVFTREPGGTQLAEKLRSLALDIKSVGDEVITDKAEVLMFYAARVQLVETVIKPALANGTWVIGDRHDLSTQAYQGGGRGIDQHMLATLRDAVLGDFRPDLTLYLDVTPEVGLKRARARGELDRIEQESFDFFNRTRARYLELAAQDKSIHTIDATQPLEAVMDAIRTTVTHWVKELDA
B6: tmk V141A (protein)
chain: B5 chain with A54V, V141A
B7: tilS L111W (protein)
chain: MTLTLNRQLLTSRQILVAFSGGLDSTVLLHQLVQWRTENPGVALRAIHVHHGLSANADAWVTHCENVCQQWQVPLVVERVQLAQEGLGIEAQARQARYQAFARTLLPGEVWVTAQHLDDQCETFLLALKRGSGPAGLSAMAEVSEFAGTRLIRPLLARTRGELVQWARQYDLRWIEDESNQDDSYDRNFLRLRVVPLLQQRWPHFAEATARSAALCAEQESLLDELLADDLAHCQSPQGTLQIVPMLAMSDARRAAIIRRWLAGQNAPMPSRDALVRIWQEVALAREDASPCLRLGAFEIRRYQSQLWWIKSVTGQSENIVPWQTWLQPLELPAGLGSVQLNAGGDIRPPRADEAVSVRFKAPGLLHIVGRNGGRKLKKIWQELGVPPWLRDTTPLLFYGETLIAAAGVFVTQEGVAEGENGVSFVWQKTLS
B8: tilS L397A (protein)
chain: B7 chain with W111L, L397A

These proteins were tested against Escherichia coli (laboratory strain) (assay: barcode share on antibiotic plates over drug-free plates; higher = less susceptible). Conditions: antibiotic: gentamicin; 2× MIC (MIC 0.45 µg/mL).
Method: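 A pool of E. coli strains, each edited to carry one amino-acid change in an essential protein, was grown for 48 h on minimal glucose agar with or without antibiotic; strain barcodes were sequenced; mean of two replicates.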

Row | Protein | fold change of barcode share
1 | B1 | < 0.0234
2 | B2 | < 0.0234
3 | B3 | < 0.0227
4 | B4 | < 0.0171
5 | B5 | < 0.0215
6 | B6 | < 0.0173
7 | B7 | < 0.0142
8 | B8 | < 0.00898

From the supplement of paper PMC11876631
